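Following 48 hours of exposure in 96-well plates, responses at five concentrations were used to interpolate endpoints linearly. The concentration for 50% growth inhibition is given as GI50. TGI: concentration producing complete growth inhibition.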
tested on: NCI-H322M lung; assay: inhibition of tumour cell growth, NCI panel, 48 h

| Structure (SMILES) | GI50 | TGI |
| --- | --- | --- |
| COc1ccc(/C=C/c2nc3ccccc3n3c(-c4cccc([N+](=O)[O-])c4)nnc23)cc1 | 7.09 µM | 20 µM |
| CCN(CC)CCOc1ccc(Nc2ncc3cc(-c4ccc(O)c(C#N)c4)c(=O)n(C)c3n2)cc1 | > 100 µM | > 100 µM |
| CN1CCN(Cc2ccc(C(=O)Nc3cccc(Nc4ccc5cc(O)ccc5n4)c3)cc2C(F)(F)F)CC1 | 11 µM | 23.4 µM |
| COc1cccc(-c2nn(-c3ccccc3)cc2-c2ccnc(NCCCNC(=O)Nc3ccc(F)cc3)c2)c1 | 9.57 µM | > 37 µM |
| Cn1cc(-c2cc3nc(-c4cn(C)c5ncccc45)cc(N)n3n2)c2ccccc21 | 11.6 µM | 77.7 µM |
| CCOC(=O)c1ccc(NC(=O)CSC(CC(=O)c2sc(Nc3ccccn3)nc2C)c2ccccc2F)cc1 (configuration not stated) | 25.4 µM | > 100 µM |

Source: PubChem BioAssay (NCI)
